These results are taken from the supplement of paper PMC3334620.

Over roughly 33,000 sequences, “E-score (-0.5 to 0.5)” has its median near -0.04; the highest 2% begin near 0.36. The list shows a part of the results.

For the test, the target named is T1, Hmlalpha2 (UniProt P0CY09).
T1 sequence: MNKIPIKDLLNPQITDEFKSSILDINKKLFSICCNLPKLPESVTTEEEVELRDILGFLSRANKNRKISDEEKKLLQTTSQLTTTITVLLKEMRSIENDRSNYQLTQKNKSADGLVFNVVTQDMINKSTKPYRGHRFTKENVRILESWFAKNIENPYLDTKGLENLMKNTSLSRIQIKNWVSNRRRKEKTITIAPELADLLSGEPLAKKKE
As to the kind of experiment: PBM E-score (8-mer binding enrichment) (E-score (-0.5 to 0.5)); higher = stronger / more preferred TF binding; most listed sequences are background and not binding sites. Conditions: protein concentration: 200 nM; construct: GST-full length. On the procedure: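 Universal 'all 10-mer' protein binding microarrays (Agilent AMADID 015681) probed with GST-tagged S. cerevisiae TFs (full-length or DBD) made by in vitro transcription/translation (PURExpress), about 100-200 nM. Bound TF was detected with fluorescent anti-GST. Each ungapped 8-mer (which stands for itself and its reverse complement) is scored by the PBM enrichment score (E-score), a modified Wilcoxon-Mann-Whitney statistic from -0.5 to +0.5, computed with the Universal PBM Analysis Suite. Scale: above 0.35 generally sequence-specific binding.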
As to CGAAGGAC, the “PBM E-score” value was -0.0658. On to ACAAGCTC, for which the “PBM E-score” value is 0.163. Regarding TTTGAAAA, the “PBM E-score” value is 0.229. Turning to ATTTATTA, the “PBM E-score” value is 0.272.

For GGACTGAC, the “PBM E-score” value was -0.234. As to AATTTGAG, the “PBM E-score” value is -0.0616.

Regarding ATCTCCAT, the “PBM E-score” value is -0.127.

Take AATCAGAA: the “PBM E-score” value was -0.14. For ACTATTTC the value was 0.0764; for ACCCCCCG, -0.215.

Take GACTAGTA: the “PBM E-score” value was determined as 0.0575. For GCGGTCCC, the “PBM E-score” value was -0.227.

Consider TCTCTACA, for which the “PBM E-score” value worked out at 0.296. In the case of AGGCACGA, the “PBM E-score” value is -0.166. In the case of CAGAGAAC, the “PBM E-score” value is -0.00654.

Regarding TTAGGGAA, the “PBM E-score” value was found to be 0.103.

Take ATGAAAGC: the “PBM E-score” value amounted to 0.00359. CCTCGATA: the “PBM E-score” value was 0.0689.

Turning to AGTCTGGA, the “PBM E-score” value was -0.0416.

In the case of AACAAACG, the “PBM E-score” value came out at 0.194.

Turning to GCTTCCTA, the “PBM E-score” value stood at 0.0616. With ACGTGCCC the figure was 0.123; with GACTGCCA, -0.119.

Take GCCGCCCA: the “PBM E-score” value was -0.173.

With AATGAAGG, the “PBM E-score” value was -0.08. ACGCACAA: the “PBM E-score” value stood at 0.151. For AGTCAAAG the value was -0.0785; for CACGCCTA, 0.137. Consider CCTAGAGC, for which the “PBM E-score” value is -0.169. In the case of CGGATTAC, the “PBM E-score” value is 0.258. For CGTTGGAG the value was 0.0203; for GTTTCACA, 0.244; for GGCTTTCA, -0.162. Turning to CAGATTTC, the “PBM E-score” value was -0.132.

Turning to ACAGTTTA, the “PBM E-score” value was found to be 0.182.

On to GAGCACCC, for which the “PBM E-score” value was -0.38. Consider CAAGTCAC, for which the “PBM E-score” value is -0.163.

Turning to GGGGATAC, the “PBM E-score” value is -0.165. Turning to CGCAACGC, the “PBM E-score” value worked out at 0.0833. GCGCACAC: the “PBM E-score” value is -0.189. With GTCAGGGA, the “PBM E-score” value is -0.256.

As for TACGGATA, the “PBM E-score” value worked out at 0.0901. In the case of GCTCGGTA, the “PBM E-score” value is -0.14.

In the case of AGCATAAC, the “PBM E-score” value amounted to 0.0468. ATTGACTC: the “PBM E-score” value was -0.122.

As to ATGTTCGA, the “PBM E-score” value stood at 0.191.

With AGATACGC, the “PBM E-score” value was -0.00425. Regarding ACGTCCTC, the “PBM E-score” value was -0.162.

Regarding CAAAATAA, the “PBM E-score” value is 0.146. For ATCTGAGA the value was -0.228; for CACATATC, 0.0564; for ATTCTACC, 0.209. In the case of GATGACCA, the “PBM E-score” value came to 0.0315.

Regarding CGACTGGC, the “PBM E-score” value was -0.256. As to ATACAAGC, the “PBM E-score” value amounted to 0.308. Take ACTTTATA: the “PBM E-score” value was found to be 0.0554.

For the sequence CTGTTGAC, the “PBM E-score” value is 0.156. For the sequence CAGGGTGG, the “PBM E-score” value was -0.252. ACATGTGA: the “PBM E-score” value was found to be 0.277. For the sequence AATACACC, the “PBM E-score” value worked out at 0.307. For the sequence CGACCTAG, the “PBM E-score” value was -0.101.

GATCATAC: the “PBM E-score” value was determined as 0.0883. For AGGAATGG, the “PBM E-score” value was -0.133. Consider AGACTTCC, for which the “PBM E-score” value is -0.3. Consider CTTTGTCA, for which the “PBM E-score” value came out at 0.172. For the sequence ACCGCAAG, the “PBM E-score” value is -0.115.

For GCGCTTCC, the “PBM E-score” value is -0.0816. As for GCTTGAAA, the “PBM E-score” value was determined as 0.0512. Turning to ATAACGTC, the “PBM E-score” value was determined as 0.155. Turning to TCGCTTCA, the “PBM E-score” value is -0.0525. On to GCCCCAAA, for which the “PBM E-score” value was -0.0423. Take GGCAGACA: the “PBM E-score” value is -0.238. For AAGTGGGT the value was -0.117; for AAGCGCGT, 0.206; for ACATTCGC, 0.103.

Take AAGAGTAG: the “PBM E-score” value was -0.0535. As for ACCAACGT, the “PBM E-score” value was 0.113. Turning to TGAGGAAA, the “PBM E-score” value is 0.0422. Consider CGTGAAGC, for which the “PBM E-score” value was -0.21. With ACGGCTAC the figure was 0.0889; with CCGGACCC, -0.205. In the case of CAGTTAAG, the “PBM E-score” value is 0.155. Turning to AAGGACGC, the “PBM E-score” value was -0.164. With ATGAAAAA, the “PBM E-score” value stood at 0.122. As for ACCGGTCT, the “PBM E-score” value is -0.25. For AGTTTCAG, the “PBM E-score” value is -0.0712.

Turning to GACAACGA, the “PBM E-score” value came to 0.108.

Consider GAGATGCC, for which the “PBM E-score” value was -0.112.

As for ATCAATAC, the “PBM E-score” value came to 0.226. For TAGGTCGA the value was 0.0154; for CCCTTATC, -0.0289; for CTGTGAAC, -0.0038. With GGCCCCTA the figure was -0.258; with CTTTAGCC, -0.0346; with CATCGTGA, -0.152. As for ATAGTGGA, the “PBM E-score” value was determined as 0.0705.

As for CGTTCGTC, the “PBM E-score” value came out at 0.165. In the case of ATACAACA, the “PBM E-score” value came to 0.355. For GTAGGCTA, the “PBM E-score” value stood at 0.0655. As for AGAGCTCC, the “PBM E-score” value was -0.252.

As to ACAAACGG, the “PBM E-score” value was determined as 0.0598.

Consider ATCGGCAG, for which the “PBM E-score” value was -0.121.

With ACTCACTA, the “PBM E-score” value came out at 0.105. As for GAGATAAC, the “PBM E-score” value stood at 0.197. For GTAGATCA the value was 0.189; for GTAAGTAA, 0.2. On to CGAGTAGC, for which the “PBM E-score” value was -0.00175. For ATACAGAC the value was 0.124; for ATAGAGAC, -0.214.
